Consider 23 compounds from ChEMBL document CHEMBL4888484, “Replenishing the malaria drug discovery pipeline: Screening and hit evaluation of the MMV Hit Generation Library 1 (HGL1) against asexual blood stage Plasmodium falciparum ,using a nano luciferase reporter read-out” (2022).

In all, about 150,000 compounds went through this assay and about 540 (0.36%) showed an effect of 50% or more. This is one part of the list.

The term % Inhibition denotes the change of the read-out against control, counted positive when it falls.

The experiment relates to Plasmodium falciparum. Description: Primary screen in NF54 nanoGlo assay, in single point, at 2uM, 72h; a lower Z score goes with more inhibition. In kind it is functional, Erythrocyte. As to conditions: timepoint 72 hour.
Consider `COCCN(CCOC)c1ccc(-c2nc(-c3ccccc3F)no2)cn1`, for which the “% Inhibition” value is recorded as -8% and the Z score came to 1.17.
For the compound `O=C(N[C@@H]1CCCc2cccnc21)c1cnn2c1OCCC2`, the “% Inhibition” value is given as -6% and the Z score was 0.96.
Take `Cc1cccc(Nc2nc(-c3cnc(N4CCN(C)CC4)nc3C)cc(=O)[nH]2)c1`: the “% Inhibition” value was determined as 36% and the Z score is -4.66.
Regarding `C[C@@H](c1ccncn1)N(C)Cc1cc(C2CC2)on1`, the “% Inhibition” value is -2% and the Z score is 0.31.
As to `O=C(NCc1ccc(C2CC2)cc1)c1cnn2c1CCCC2`, the “% Inhibition” value came out at 1% and the Z score is recorded as -0.16.
Taken in the same sequence, the figures for `COc1cc(NC(=O)C[C@H]2CCCN(c3cnn(C)c(=O)c3)C2)cc(OC)c1` were -8% and 0.97.
Take `O=C(COc1ccc(Cl)cc1Cl)N1CCC[C@H]1c1nc2ccccc2s1`: the “% Inhibition” value is on record as 11% and the Z score was -1.39.
Take `COc1nc2c(cc1CN1CC[C@@H](CO)[C@@H](O)C1)C(=O)N(C(C)C)C2`: the “% Inhibition” value was -6% and the Z score is recorded as 1.1.
Take `CCn1ncnc1CN(C)Cc1c(C)noc1C`: the “% Inhibition” value is -7% and the Z score worked out at 1.47.
Consider `Cc1ccc2c(Nc3cccc(C(C)C)c3)c(C(=O)N3CCCCCC3)cnc2n1`, for which the “% Inhibition” value was -6% and the Z score is 0.95.
Take `COC1CCC(N(C)C(=O)[C@@H](C)CC(=O)c2ccccc2F)CC1` (stereo partly specified): the “% Inhibition” value is listed as -11% and the Z score is recorded as 1.61.
For the compound `O=C(NCCOCC1CC1)C(=O)c1ccc(Br)cc1`, the “% Inhibition” value was determined as 12% and the Z score was -1.63.
Take `Fc1ccc(OCc2nnnn2C2CC2)cc1Cl`: the “% Inhibition” value amounted to 0% and the Z score is given as -0.01.
In the case of `Cc1cc(C(=O)N2CCC[C@H]2c2nnc(-c3ccccc3)[nH]2)nn1C`, the “% Inhibition” value is -8% and the Z score was determined as 1.06.
As for `O=C(N1CC(n2cccn2)C1)[C@]1(c2ccccc2)CC12CCCC2`, the “% Inhibition” value is given as -2% and the Z score worked out at 0.34.
In the case of `Cc1ncccc1OC1(C(=O)O)CCN(Cc2cccs2)CC1`, the “% Inhibition” value is recorded as -14% and the Z score is 1.22.
Turning to `N#Cc1ccccc1-c1ccc(-c2cn(Cc3ccoc3)nn2)o1`, the “% Inhibition” value is -9% and the Z score is 1.79.
In the case of `CC(C)c1ccc(C#N)c(-c2ccc(C(=O)N3CCc4n[nH]cc4C3)cc2)n1`, the “% Inhibition” value is recorded as -11% and the Z score worked out at 1.85.
For the compound `Cc1cc(OC2CCN(C(=O)c3cccn(C)c3=O)CC2)cc(=O)n1C`, the “% Inhibition” value was -4% and the Z score is given as 0.69.
With `Cc1cc(NC(=O)C(c2ccccc2)c2ccccc2)c(O)c(-n2nc3ccccc3n2)c1`, the “% Inhibition” value is recorded as 30% and the Z score is on record as -3.34.
Regarding `CCOc1ccc(C(=O)N2CCN(c3cc(C(C)C)n4cnnc4n3)CC2)cc1`, the “% Inhibition” value is -9% and the Z score was 1.25.
Take `CN(C)C(=O)N1CCN(C(=O)c2ccncc2F)C(C)(C)C1`: the “% Inhibition” value is -3% and the Z score is given as 0.42.
`Cc1noc2c1N=C(c1ccccc1)C[C@@H](c1ccc(O)cc1)C2`: the “% Inhibition” value is on record as -6% and the Z score stood at 0.75.
